According to article PMC7819943, “Rice protein-binding microarrays: a tool to detect cis-acting elements near promoter regions in rice”:
The other results are listed elsewhere or left out.

Biological target: T1, OsWOX13 (Oryza sativa, UniProt Q5QMM3 1-267)
T1 sequence: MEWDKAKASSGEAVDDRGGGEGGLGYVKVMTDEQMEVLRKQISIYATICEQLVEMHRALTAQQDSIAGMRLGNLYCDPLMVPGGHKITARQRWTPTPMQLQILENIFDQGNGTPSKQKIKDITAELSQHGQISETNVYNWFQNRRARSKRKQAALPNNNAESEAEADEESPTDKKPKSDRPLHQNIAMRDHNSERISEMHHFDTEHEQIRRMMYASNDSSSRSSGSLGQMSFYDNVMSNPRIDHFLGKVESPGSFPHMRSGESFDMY
Assay: protein-binding microarray (RPBM); PBS, 2% BSA, 51.3 ng/ul salmon testes DNA, 50 uM zinc acetate, 200 nM TF, 25 C, 1 h; high values mean tight binding
Conditions: protein: recombinant; tags: N-terminal polyhistidine and DsRed monomer fusion (pET32a); label: CyDye5-dUTP incorporated in the synthesized complementary strand; 3' TTTTT single-stranded linker to array surface; dsDNA, one strand shown
In short: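 Transcription factors, each fused N-terminally to a polyhistidine tag and DsRed, were expressed in E. coli BL21-CodonPlus and purified on Ni–NTA. A custom Agilent array was made double-stranded by primer extension with Cy5-dUTP and blocked with 2% BSA. It was incubated with 200 nM protein in PBS, 2% BSA, salmon testes DNA and 50 µM zinc acetate at 25 °C for 1 h, then washed. The binding signal is per-feature fluorescence intensity (arbitrary units) read on an Axon 4000B scanner.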

Row | Sequence | binding signal
1 | GAGGACAGGATGGATTGGTGGGGAGGTGGATAAGTGGTGGCGGAGTCACCTAGTGCAG | 3780 fluorescence intensity (a.u.)
2 | AGACAATGATAGTGATAATTAACAAATTCAGTTTAAGATCCGGAGTCACCTAGTGCAG | 19700 fluorescence intensity (a.u.)
3 | CACTTACCAATTATAGGTTCATCTCTCAAGCATCTCTACGCGGAGTCACCTAGTGCAG | 4080 fluorescence intensity (a.u.)
4 | CTTCTACAATAAACTGAAATTAATGCAGAACAAGCAGATACGGAGTCACCTAGTGCAG | 4530 fluorescence intensity (a.u.)
5 | TATGATTAATATTTTCTATTGTAGATGATGAAATATAAAGCGGAGTCACCTAGTGCAG | 20300 fluorescence intensity (a.u.)
6 | ATAATTAGAGTAATGATCAGGTTTGAGAAAGAGGATTAATCGGAGTCACCTAGTGCAG | 3610 fluorescence intensity (a.u.)
7 | TTTACAATTTAGATCATTTGGACAGTTAATTCCTAACATGCGGAGTCACCTAGTGCAG | 7700 fluorescence intensity (a.u.)
8 | GTAAATTAGAAGTGATTAGCTTCATTGCTTCATTGCTCCACGGAGTCACCTAGTGCAG | 45100 fluorescence intensity (a.u.)
9 | TTTAATAAGCGTTAGATTAACTGCAGGCCCCGCCGACCCACGGAGTCACCTAGTGCAG | 4400 fluorescence intensity (a.u.)
10 | TGAAGATGCTGTAATTAACTAATCAAGAAGCAAAATCTTCCGGAGTCACCTAGTGCAG | 10200 fluorescence intensity (a.u.)
11 | CTGTGATTTAACTTTACAATAGCGAGAATTCAGATTGCATCGGAGTCACCTAGTGCAG | 22500 fluorescence intensity (a.u.)
12 | GTTGACAGGTTGAGTAGCGTTGCCACTGTTCTATCTTCGTCGGAGTCACCTAGTGCAG | 18900 fluorescence intensity (a.u.)
13 | ATTTGACAAAATATATTTGGGATGGATGTTTGGTGATGCACGGAGTCACCTAGTGCAG | 6770 fluorescence intensity (a.u.)
14 | CCATCAAATTGATACTCCCTCCGTTTTATAATGTAAAACTCGGAGTCACCTAGTGCAG | 14700 fluorescence intensity (a.u.)
15 | TAATTGATGTAATTTAAATTATTCTTGGTCTTAGTGTATACGGAGTCACCTAGTGCAG | 54800 fluorescence intensity (a.u.)
16 | TATTAATTGATGCGATTTAAATTATCTTTGGTCTTGATGTCGGAGTCACCTAGTGCAG | 50000 fluorescence intensity (a.u.)
17 | ACAAATGAAATTTCTGTTGACTTCCAAAATGTTGATCCATCGGAGTCACCTAGTGCAG | 6240 fluorescence intensity (a.u.)
18 | AATAAATCTAAACAATGATATATCCAGATTTGTTATAGTACGGAGTCACCTAGTGCAG | 4540 fluorescence intensity (a.u.)
19 | TTAATTAGGTTTAATAAATTCGTCTCGTGGTTTACTGACGCGGAGTCACCTAGTGCAG | 19400 fluorescence intensity (a.u.)
20 | AATTTAATTTTAGGTCTAGAATGAAATTTTGAAGTTACCTCGGAGTCACCTAGTGCAG | 9830 fluorescence intensity (a.u.)
21 | AATAAATCAGTTTAATTTTCGTAGGCTTTGGTAAAATTCTCGGAGTCACCTAGTGCAG | 8370 fluorescence intensity (a.u.)

Row | Sequence | binding signal
22 | TTATTAATTAAGAGGTAACACATACAACATATCACATATACGGAGTCACCTAGTGCAG | 16700 fluorescence intensity (a.u.)
23 | TCAATAAATAATATATTAATGATTCACCTCCTCTTACACACGGAGTCACCTAGTGCAG | 5780 fluorescence intensity (a.u.)
24 | AAATATAAATCACTTAAAGTATTTTGAGTGATAAAACAACCGGAGTCACCTAGTGCAG | 3300 fluorescence intensity (a.u.)
25 | CGTTTAATATTTATAATTAGTATCCAAACATTTAATGTGACGGAGTCACCTAGTGCAG | 13000 fluorescence intensity (a.u.)
26 | GCTATGGCTTGATTTGATGTCCTCACCTCCCAGGGAGCATCGGAGTCACCTAGTGCAG | 3570 fluorescence intensity (a.u.)
27 | AACCATTTCATTTTGATTTAGACATGGCATCAGAACAACCCGGAGTCACCTAGTGCAG | 4980 fluorescence intensity (a.u.)
28 | AGAGAATGGTACTTGATTTACAGCAAGGCTTCAGAAAGGCCGGAGTCACCTAGTGCAG | 7240 fluorescence intensity (a.u.)
29 | AATAATCTAATAATCTATAATTTTATACTATAGTTATTTTCGGAGTCACCTAGTGCAG | 3300 fluorescence intensity (a.u.)
30 | AAAATAAACATGTGGGATTAGATATAGGAGCCCACTAGCACGGAGTCACCTAGTGCAG | 3760 fluorescence intensity (a.u.)
31 | CTGTTAATGGAAACGCCGCGCCCTCTCCTCCTCCCTTCCCCGGAGTCACCTAGTGCAG | 8830 fluorescence intensity (a.u.)
32 | AACAAATTACAGAATCTGCCTGCAAATTGCGAGACGGATTCGGAGTCACCTAGTGCAG | 18100 fluorescence intensity (a.u.)
33 | GATAAATTTCTATGTCAGAGTATCCTTTTATCACTATATGCGGAGTCACCTAGTGCAG | 4250 fluorescence intensity (a.u.)
34 | ATATCTATCTAGATTCATTAACATCAATATAAATGTGGGACGGAGTCACCTAGTGCAG | 4050 fluorescence intensity (a.u.)
35 | GTTTTCGTGTCCAACGTTTGATTGTTCGTTTTATATGAAACGGAGTCACCTAGTGCAG | 3230 fluorescence intensity (a.u.)
36 | TAGAGTAAATTAAATTAACACTAACAAACAAACAAACACACGGAGTCACCTAGTGCAG | 24900 fluorescence intensity (a.u.)
37 | TCAACAGAGCATATCAATTGATTTTCTCTGAACTGCTCTCCGGAGTCACCTAGTGCAG | 4240 fluorescence intensity (a.u.)
38 | TTGATAGATAAATACAGTGGGCAGCGTACAAGTTGACATACGGAGTCACCTAGTGCAG | 14800 fluorescence intensity (a.u.)
39 | GGGATTGAGATTTTATACATGGAGCCACTGCGAGTTGTACCGGAGTCACCTAGTGCAG | 11800 fluorescence intensity (a.u.)
40 | GCTAACATACATTGAAATTAAAGAAGCGGTTGAGAGAGAGCGGAGTCACCTAGTGCAG | 4290 fluorescence intensity (a.u.)
41 | TCGAATTAACTGAGCAGAAAACATGTCCAATTGTGATGCACGGAGTCACCTAGTGCAG | 7860 fluorescence intensity (a.u.)
42 | TATGATTAAACCGAAGCTCATCTGTGGCCCATTACTGCCCCGGAGTCACCTAGTGCAG | 24800 fluorescence intensity (a.u.)
